Reference: PubChem BioAssay AID686979 (National Center for Advancing Translational Sciences (NCATS), 2013)
Among all 420,000 compounds or so, about 50,000 (12%) were called active. This list was built around the results that the source calls inconclusive (neither active nor inactive); the mix of calls is not that of the screen. Calls follow the shape of the dose curve; as a rule, active = well fitted inhibition curve with a large enough effect; inconclusive = small, poorly fitted or top-dose-only effect; inactive = flat fitted curve, though single readings scatter. No potency is given beside an inconclusive call; the fits are too rough.

experiment: qHTS for Inhibitors of human tyrosyl-DNA phosphodiesterase 1 (TDP1): qHTS in cells in presence of CPT; conditions: chicken DT40 Tdp1-/-;hTDP1 cells + 20 nM CPT, ATP luminescence, 48 h; activity change, negative = growth inhibition: at 46.2 µM (top of the series) unless noted; also: nearly all actives have a fitted effect of over 55% in size
Summary of the method: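 Cell growth measured by CellTiter-Glo luminescence after a minimum 48 h, 37 C compound exposure with 20 nM CPT in Tdp1-knockout DT40 cells stably expressing hTDP1, seeded 400/well; qHTS titration format.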
% is scaled to controls: 0 for no effect and ±100 for the full control effect; potency is read from the fitted curve at half-maximal effect; tags tell the direction and shape of the fitted curve.

Structure (SMILES) | Potency | activity change, negative = growth inhibition
Cc1ccc(S(=O)(=O)N2CCN(C(=O)c3cc4c(s3)CCCC4)CC2)cc1 | inconclusive [inhibitor, single point] | 
COc1cccc(C(=O)Nc2cccc(-c3ccc(N4CCOCC4)nn3)c2)c1OC | inconclusive [inhibitor, single point] | 
COc1ccc(C2=NS(=O)(=O)N(C)C(C(=O)N3CCCCC3)=C2)cc1OC | inconclusive [inhibitor, partial curve] | 
Cc1ccc(N/N=C(\C#N)C(N)=S)cc1C | active: 10.3 µM | 
COC(=O)c1cc(C(=O)c2ccc(Cl)cc2)n2c(=O)/c(=C\N(C)C)sc12 | inconclusive [inhibitor, single point] | 
Cc1ccc(N2CC(NC(=O)c3ccc(S(=O)(=O)N4CCCCC4)cc3)CC2=O)cc1 (stereo not drawn) | inconclusive [inhibitor, partial curve] | 
CC1CCCC(NC(=O)c2ccc3c(c2)OCO3)C1C (stereo not drawn) | inconclusive [inhibitor, single point] | 
Fc1cccc(CNc2ncnc3cc(Cl)ccc23)c1F | active: 16.4 µM | 
CC1(c2nnnn2-c2ccc3c(c2)OCCO3)CCC(=O)N1CC1CCCCC1 (stereo not drawn) |  | inactive: -15.5%
CCOC(=O)c1cc(NC(=O)c2ccc(C)cc2)c(=O)n2c1oc1ccc(Cl)cc12 |  | inactive: -24.9%
Cc1ccc(C)c(NC(=S)N/N=C2\CCc3ccccc32)c1 | inconclusive [inhibitor, single point] | 
Cc1ccc2c(C(=O)CN3CCCCC3CCO)c(C)[nH]c2c1 (stereo not drawn) | inconclusive [inhibitor, single point] | 
CC(=O)c1ccc(N2CCN(S(=O)(=O)c3ccc4c(c3)CC(C)N4C(C)=O)CC2)cc1 (stereo not drawn) | active: 23.1 µM | 
Cc1cc(Br)cn2c(Cc3ccsc3)c(C3CCCCC3)nc12 | inconclusive [inhibitor, single point] | 
Fc1c(F)c(F)c(N/N=C/c2c[nH]c3ccccc23)c(F)c1F | inconclusive [inhibitor, single point] | 
CN1CCN(C2Cc3cc(F)ccc3Sc3ccc(Cl)cc32)CC1 (stereo not drawn) | inconclusive [inhibitor, single point] | 
CN(C)CCCN(C(=O)c1ccc(Br)s1)c1nc2cc3c(cc2s1)OCO3 | active: 9.2 µM | 
CCCCn1c(=O)n(Cc2cccc(F)c2)c(=O)c2c1ncn2Cc1ccco1 | inconclusive [inhibitor, single point] | 
CCOC(=O)C1CCN(C(=O)c2cc(S(=O)(=O)N3CCc4ccccc43)ccc2OC)CC1 | inconclusive [inhibitor, single point] | 
Cc1cccc(NCC(=O)N/N=C\c2c[nH]c3ccccc23)c1 |  | inconclusive: -33.1% [inhibitor]
COC(=O)C1=C(O)C2(C(=O)O)CC(C(=O)OC)=C(O)C(C(=O)O)(C1)C2 |  | inactive: 2.93%
COc1cc(NC(=O)Cc2cccs2)cc(OC)c1 | inconclusive [inhibitor, single point] | 
Cc1c(/C=N/NC(=O)CNc2ccccc2)c2ccccn2c1C(=O)c1ccncc1 |  | inactive: 1.45%
O=C(c1c[nH]c(C(=O)C(Cl)(Cl)Cl)c1)c1ccccc1Br | inconclusive [inhibitor, single point] | 
CCCn1c(CCNc2nc(-c3ccc(OC)cc3)cs2)nc2ccccc21 | inconclusive [inhibitor, partial curve, poor fit] | 

Structure (SMILES) | Potency | activity change, negative = growth inhibition
CCCCn1c(=O)[nH]c(=O)c2c1nc(-c1ccsc1)n2Cc1ccccc1 | inconclusive [inhibitor, single point] | 
O=C(Nc1ccccc1)c1cc(N2CCOCC2)nc2ccccc12 |  | inactive: -16.8%
C=CCn1c(C)nnc1SCC(=O)N1CCN(S(=O)(=O)c2ccccc2)CC1 |  | inactive: 2.48%
Nc1nc2n(n1)C(c1ccccc1Cl)CC(c1ccc(F)cc1)N2 (stereo not drawn) | active: 16.4 µM | 
COc1ccc(CCNC(=O)C2CCN(C(=O)c3ccc(C(C)(C)C)cc3)CC2)cc1 | inconclusive [inhibitor, single point] | 
Cc1cc(C)c(NC(=S)NC(=O)c2ccccc2)cc1C | active: 20.6 µM | 
CCCN(CCC)C(=O)c1ccc2c(c1)OCO2 |  | inactive: -29.5%
CCC1=Nc2cc(C(=O)NCCN3CCCC3)ccc2Sc2ccccc21 | inconclusive [inhibitor, single point] | 
CCCS(=O)(=O)c1nc(S(=O)(=O)c2ccc(C)cc2)c(N2CCCC2)s1 | inconclusive [inhibitor, single point] | 
O=C(CSc1nc2c(c(=O)[nH]1)CN(Cc1ccc3c(c1)OCO3)CC2)Nc1cccc(Cl)c1 | inconclusive [inhibitor, partial curve] | 
COc1cccc(NC(=O)c2ccc(S(=O)(=O)N(C)C)cc2)c1 |  | inactive: -1.56%
CCCC(=O)Nc1nnc2n1CCS2 |  | inactive: -0.275%
CCS(=O)(=O)c1ccc(-c2cccc(NC(=O)c3ccc(Br)o3)c2)nn1 |  | inactive: 3.85%
COc1ccc(NC(=O)c2nc[nH]c2C(=O)N[C@@H](C)c2ccccc2)cc1 | inconclusive [inhibitor, single point] | 
Cc1ccc(C2CC(=O)Oc3cc(C)c(Br)c(C)c32)cc1 (stereo not drawn) |  | inactive: 0.0682%
O=C/C(=C\Nc1ccccn1)c1nc2cc(Cl)ccc2o1 | inconclusive [inhibitor, single point] | 
Cc1cc(OCc2cc(C(=O)N3CCN(CC4CC4)CC3)no2)cc(C)c1Cl | inconclusive [inhibitor, single point] | 
Cc1ccc(C(=O)Nc2nc(C(N)Cc3ccc(C(F)(F)F)cc3)cs2)cc1 (stereo not drawn) | inconclusive [inhibitor, single point] | 
Cn1nnc2c(NCc3ccccc3Cl)ncnc21 |  | inactive: -9.7%
Cc1nc2c(c(C)nn2-c2ccccc2)c(C)c1CCC(=O)NCCc1ccccc1 | active: 20.6 µM | 
COc1ccccc1-n1cnc2cc(NS(=O)(=O)c3ccccc3)ccc21 |  | inactive: -23.5%
O=C(c1sc2ccccc2c1Cl)N(Cc1ccccc1Cl)C1CCS(=O)(=O)C1 (stereo not drawn) | inconclusive [inhibitor, single point] | 
O=C1N=c2ccccc2=C1c1[nH]c(=S)[nH]c1O | inconclusive [inhibitor, single point] | 
O=C(O)c1ccc(S(=O)(=O)c2ccccc2)s1 |  | inactive: 25.9%
Oc1ccc(Br)cc1/C=N/NC(=S)NCCc1ccccc1 | inconclusive [inhibitor, single point] | 

Structure (SMILES) | Potency | activity change, negative = growth inhibition
Cc1ccc(C)c(CSc2nnc(CCN)o2)c1 | inconclusive [inhibitor, single point] | 
CCOC(=O)c1noc2ncnc(N3CCC(C)CC3)c12 | inconclusive [inhibitor, single point] | 
COc1cccc(C(=O)CSc2nc3cccnc3n2C)c1 | inconclusive [inhibitor, partial curve] | 
CCOc1ccc2nc(N3C(=O)CNC3=S)sc2c1 | active: 16.4 µM | 
Cn1c(C(=O)N2CCN(c3ccc([N+](=O)[O-])cc3)CC2)cc2c(=O)[nH]c3ccccc3c21 | inconclusive [inhibitor, single point] | 
CN1CCN(c2ccc(C(=O)c3ccc(F)cc3)cc2)CC1 | inconclusive [inhibitor, partial curve, poor fit] | 
O=C1C=C(c2ccc3ncccc3c2)C[C@@H](c2ccc(F)cc2)C1 | inconclusive [inhibitor, single point] | 
COc1ccc(NS(=O)(=O)c2cc(OC)ccc2NC(=O)c2cc(C)oc2C)cc1 | active: 5.17 µM | 
COc1cccc(C(=O)CSc2nc3ccccc3n2CC(=O)N(C(C)C)C(C)C)c1 |  | inactive: 10.4%
N#CCCN(C(=S)NC(=O)C1CCCCC1)c1ccccc1F |  | inactive: 6.01%
COc1ccc(S(=O)(=O)N(Cc2ccccc2)Cc2nc3ccccc3c(=O)[nH]2)cc1 | active: 4.61 µM | 
O=C(COC(=O)c1c2c(nc3ccccc13)CCCC2)c1cccs1 | active: 29.1 µM | 
COc1ccc(CC(=O)NCc2nc3cccnc3n2Cc2ccc(C)cc2)cc1OC | inconclusive [inhibitor, single point] | 
COC(=O)c1ccc(NC(=O)Nc2ccc(OC)cc2)cc1 | inconclusive [inhibitor, single point] | 
Cc1cccc(Cn2cc3c(=O)n(CC(=O)Nc4ccc(C)c(F)c4)nc-3c3cc(F)ccc32)c1 |  | inactive: 5.5%
Cc1cc(C)n(-c2ccc(C(=O)OCC(=O)Nc3ccc(S(=O)(=O)N4CCCCC4)cc3)cc2)n1 | active: 23.1 µM | 
Cc1ccc(C2=NS(=O)(=O)N(C)C(C(=O)NCc3ccc(F)cc3)=C2)cc1 | inconclusive [inhibitor, single point] | 
O=C(NCc1ccccn1)c1nc(Cn2ccc([N+](=O)[O-])n2)no1 |  | inactive: 1.27%
CCOc1cc(/C=C/C(=O)c2ccc(C)cc2)ccc1OCC(=O)N(C)C | active: 18.4 µM | 
CCc1nc2ccc(C(=O)NCCN3CCCC3)cn2c1N(C)Cc1ccc(OC)cc1 | inconclusive [inhibitor, single point] | 
Cc1cccc(C)c1NC(=O)C1(C)CN(S(C)(=O)=O)CC(=O)N1CCCn1ccnc1 (stereo not drawn) |  | inactive: -2.04%
Cc1ccc(S(=O)(=O)NCC(=O)OCC(=O)N2CCN(C(=O)c3ccco3)CC2)cc1C |  | inactive: -4.47%
CCc1ccccc1NC(=O)c1cc(S(=O)(=O)N2CCCC2)cn1C |  | inconclusive: -32.8% [inhibitor]
